Patent publication US12729177B2, “Small molecules promoting sympathetic nerve regeneration” (OREGON HEALTH & SCIENCE UNIVERSITY, priority 2020, dated 2026)

Assays:
sympathetic neurons = experiment: Sympathetic outgrowth assay: dissociated sympathetic neurons on laminin or laminin and CSPGs, live cell imaging; details: 10 ng/mL NGF
PTP1B = target: T1, PTP1B (Homo sapiens, UniProt P18031); experiment: Insulin-stimulated ERK1/2 phosphorylation in HepG2 cells (PTP1B negative control); details: 1 μM HJ-01 or HJ-02, 5 μM CinnGel 2ME for 1.5 hours; 100 nM insulin 5 min
T1 sequence (P18031 1-435): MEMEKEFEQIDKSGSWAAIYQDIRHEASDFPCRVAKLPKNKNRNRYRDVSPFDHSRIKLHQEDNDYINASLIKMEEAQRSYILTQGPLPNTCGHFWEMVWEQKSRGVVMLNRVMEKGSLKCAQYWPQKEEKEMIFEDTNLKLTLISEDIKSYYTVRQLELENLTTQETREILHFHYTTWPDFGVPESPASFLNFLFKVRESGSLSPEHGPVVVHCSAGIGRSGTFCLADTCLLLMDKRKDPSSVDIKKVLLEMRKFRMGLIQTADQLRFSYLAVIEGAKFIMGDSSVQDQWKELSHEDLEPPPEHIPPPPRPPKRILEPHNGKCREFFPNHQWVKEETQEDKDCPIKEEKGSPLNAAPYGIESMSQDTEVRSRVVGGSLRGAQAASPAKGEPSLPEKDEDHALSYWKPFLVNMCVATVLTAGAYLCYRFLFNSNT

TrkA-PTPσ interaction = TrkA-PTPσ interaction (Homo sapiens, UniProt Q13332); experiment: Immunoprecipitation assay: TrkA-RFP pulldown of PTPσ in transfected HEK-293t cells; details: 1 uM; HEK-293 cells treated with CSPGs and NGF; normalized to vehicle
[1] = tested on: PTPσ inhibition of TrkB signaling (ERK1/2 phosphorylation); experiment: TrkB stimulated ERK phosphorylation in TrkB-HEK-293t cells co-expressing full-length PTPσ

Compound | sympathetic axon outgrowth over inhibitory CSPGs (sympathetic neurons) | ERK1/2 phosphorylation in insulin-stimulated HepG2 cells (PTP1B) | amount of PTPRS co-immunoprecipitated with TrkA-RFP (TrkA-PTPσ interaction) | BDNF-induced ERK1/2 phosphorylation [1]
CCC(=O)Nc1cc(OC)c(OCC2CCCCC2)cc1C(=O)O [HJ-03, 5-(cyclohexylmethoxy)-4-methoxy-2-propionamidobenzoic Acid] | did not promote sympathetic axon outgrowth across CSPGs |  |  | 
C=CC(=O)Nc1cc(OC)c(OCC2CCCCC2)cc1C(=O)O [HJ-01, 2-acrylamido-5-(cyclohexylmethoxy)-4-methoxybenzoic Acid] | restored sympathetic axon outgrowth in a dose dependent manner | had no effect on ERK1/2 phosphorylation | reduced the amount of PTPRS that bound to TrkA-RFP | restored ERK1/2 phosphorylation to basal levels
C=CC(=O)Nc1cc(OC)c(OCCCCCC)cc1C(=O)O [HJ-02, 2-acrylamido-5-(hexyloxy)-4-methoxybenzoic Acid] | restored sympathetic axon outgrowth in a dose dependent manner | had no effect on ERK1/2 phosphorylation | reduced the amount of PTPRS that bound to TrkA-RFP | restored ERK1/2 phosphorylation to basal levels
